# Test results published in article PMC4336329 (PLoS ONE, 2015).
# The campaign covered roughly 310,000 compounds. About 14,000 (4.5%) showed an effect of 50% or more. Effects have a minus sign here. The list shows a part of the results.
# Molecular target: human ether-à-go-go-related gene (hERG) potassium channel (human, UniProt Q12809)
# Assay: primary screen, population patch clamp on CHO cells stably expressing hERG
# 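Further: peak tail current of the secondary pulse compared with the same well before compound.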
# Sequence of human ether-à-go-go-related gene (hERG) potassium channel (Q12809 whole entry, looked up): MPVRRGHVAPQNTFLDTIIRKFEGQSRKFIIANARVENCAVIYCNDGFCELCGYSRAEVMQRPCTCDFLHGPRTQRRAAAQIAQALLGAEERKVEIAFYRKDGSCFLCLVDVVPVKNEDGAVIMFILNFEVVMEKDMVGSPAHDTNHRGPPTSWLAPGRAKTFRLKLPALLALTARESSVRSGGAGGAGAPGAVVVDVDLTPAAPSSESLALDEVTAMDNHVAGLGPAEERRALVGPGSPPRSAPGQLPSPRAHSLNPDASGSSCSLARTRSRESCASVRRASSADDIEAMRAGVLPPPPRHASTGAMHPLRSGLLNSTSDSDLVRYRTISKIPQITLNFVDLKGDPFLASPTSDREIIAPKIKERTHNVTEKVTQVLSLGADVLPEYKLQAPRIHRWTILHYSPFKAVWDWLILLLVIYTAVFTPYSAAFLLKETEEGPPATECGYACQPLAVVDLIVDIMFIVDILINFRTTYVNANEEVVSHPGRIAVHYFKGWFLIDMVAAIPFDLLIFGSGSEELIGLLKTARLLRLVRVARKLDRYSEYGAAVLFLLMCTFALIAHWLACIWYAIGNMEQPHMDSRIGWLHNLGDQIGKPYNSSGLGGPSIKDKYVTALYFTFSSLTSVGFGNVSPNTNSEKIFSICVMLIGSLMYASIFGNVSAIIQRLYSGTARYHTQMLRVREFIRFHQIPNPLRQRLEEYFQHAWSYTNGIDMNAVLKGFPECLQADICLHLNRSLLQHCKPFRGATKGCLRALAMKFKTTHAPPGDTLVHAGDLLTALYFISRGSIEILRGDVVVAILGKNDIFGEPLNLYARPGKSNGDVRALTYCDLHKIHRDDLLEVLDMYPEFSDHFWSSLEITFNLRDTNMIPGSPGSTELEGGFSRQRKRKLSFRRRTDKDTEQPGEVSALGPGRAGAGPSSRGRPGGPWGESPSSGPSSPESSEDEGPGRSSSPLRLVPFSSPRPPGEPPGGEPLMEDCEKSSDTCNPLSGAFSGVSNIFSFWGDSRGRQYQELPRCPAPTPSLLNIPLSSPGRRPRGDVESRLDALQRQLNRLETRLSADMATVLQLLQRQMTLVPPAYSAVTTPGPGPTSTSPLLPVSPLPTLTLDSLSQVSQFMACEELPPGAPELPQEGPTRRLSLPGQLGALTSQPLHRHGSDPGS
row,SMILES,"hERG current change (%, negative = inhibition) at 10uM [%]"
1,COc1ccc(Br)cc1/C=N/N1CCN(Cc2ccccc2)CC1,9.27
2,O=C(Nc1cccc(-n2cnnn2)c1)c1cc2ccccc2o1,5.66
3,O=C1c2ccccc2NC(c2ccccc2)N1Cc1ccccc1 (centres unmarked),-35.2
4,CCN(CC)CCN1C(=O)C(O)=C(C(=O)c2cc3cccc(OC)c3o2)C1c1cccs1 (centres unmarked),-10.9
5,Cc1cc(Nc2nc3ccccc3nc2Cl)n(-c2ccccc2)n1,-12.6
6,N#CC1=C(SCC(=O)c2cc3ccccc3oc2=O)NC(=O)C(C#N)C12CCCC2 (centres unmarked),-54.5
7,S=C(N/N=C/c1cccs1)NC1CC2CCC1C2 (centres unmarked),4.93
8,CC1(CCc2ccccc2)NC(=O)N(CC(=O)Nc2ccccc2C#N)C1=O (centres unmarked),2.41
9,O=C(Nc1ccc(F)cc1)C1CCN(C(=O)c2ccc([N+](=O)[O-])cc2)CC1,-4.16
10,Cn1c(CO)cnc1S(=O)(=O)Cc1ccc(Cl)cc1,5.81
11,N#CCC(=O)N1CCn2c1nc1ccccc12,17.2
12,CCC(C)NC(=O)c1ccc2c(Cl)c3c(nc2c1)CCC3 (centres unmarked),-23.6
13,Cc1cc(C)nc(NS(=O)(=O)c2ccc(N3Cc4ccccc4C3=O)cc2)n1,12.2
14,COc1cc(O)oc1C=Nc1ccc(Cl)cc1,-4.28
15,O=S(=O)(c1ccc(N2CCN(c3ccc(F)cc3)CC2)cc1)N1CCCC1,6.07
16,CC(C)c1cc(=O)n2[nH]c(SCc3ccc(Cl)cc3)nc2n1,27.6
17,CCC(=O)N(Cc1cc(=O)[nH]c2ccccc12)c1cccc(C)c1,3.53
18,Cc1cc(=O)[nH]c(SCC(=O)Nc2ccc(Br)cc2)n1,-3.99
19,CCCCCCCCCCCCN1[C@@H](CC(C)=O)c2cc(F)ccc2S1(=O)=O,6.96

row,SMILES,"hERG current change (%, negative = inhibition) at 10uM [%]"
1,O=S(=O)(NCCN1CCOCC1)c1ccc(Oc2ccccc2Cl)cc1,-20.7
2,CCOc1ccccc1NC(=O)C(OC(=O)c1cnccn1)c1ccccc1 (centres unmarked),-1.43
3,CCCCCn1c(CN2CCN(Cc3ccccc3)CC2)nc2c1c(=O)[nH]c(=O)n2C,-72.3
4,COc1ccc(NC(=O)CSc2nnc(-c3ccccc3)n2N)cc1,-4.04
5,COc1ccc(Cn2c(=S)[nH]c3cc(OC)c(OC)cc3c2=O)cc1,20.4
6,Cc1nc2ccccc2c(=O)n1-c1ccc(NS(=O)(=O)c2ccc(F)cc2)cc1,-36.8
7,O=C(NCc1ccco1)c1nn2c(C(F)(F)F)cc(-c3cccs3)nc2c1Br,-16.3
8,O=C(Cn1ncn2c(cc3sccc32)c1=O)NC1CCCC1,7.29
9,COC(=O)c1c(NC(=O)/C=C/C(=O)O)sc(C)c1-c1ccc(C)cc1,-16.6
10,O=C(O)/C(=N/NC(=O)c1ccc(Cl)cc1)c1ccccc1,8.68
11,COc1ccc(C(=O)NCc2n[nH]c(=S)n2-c2ccccc2)cc1OC,23.2
12,O=[N+]([O-])c1cc(C2Nc3cccc4cccc(c34)N2)ccc1Cl,13.5
13,CN1CCCN(C(=O)Cc2c(Cl)cccc2Cl)c2nc3ccccc3nc21,13
14,COc1cccc(NC(=O)N2CCCC2C(=O)Nc2ccc3c(c2)OCCO3)c1 (centres unmarked),12.8
15,Cc1csc(NC(=O)CS(=O)(=O)c2ccccc2)n1,-18.1
16,CCn1c(COc2ccccc2)nnc1SCC(=O)Nc1cc(C)ccc1OC,-37.5
17,O=C(NNC(=O)c1ccccc1Br)c1cccs1,-1.19
18,CC1CCc2c(sc(NC(=O)Cn3cnc([N+](=O)[O-])n3)c2C(N)=O)C1 (centres unmarked),16.5
19,C/C(=N\NC(=O)CN1CCN(S(=O)(=O)c2ccc(C)cc2)CC1)c1ccc(O)cc1,-6.97

row,SMILES,"hERG current change (%, negative = inhibition) at 10uM [%]"
1,CSc1ccccc1OCc1cc(C(=O)NCCn2nc(C)cc2C)no1,-0.00922
2,CN(Cc1ccccc1)S(=O)(=O)c1nnc(NC(=O)c2ccc(F)cc2)s1,1.42
3,O=C(Oc1ccccc1[N+](=O)[O-])c1cccnc1,-11.8
4,COc1ccc(-c2ccc(NCCC3=CCCCC3)nn2)cc1OC,25.7
5,Cc1cc2c3c([nH]c2cc1S(=O)(=O)NCc1ccc(CN2CCCCCC2)o1)CC(C)(C)CC3=O,11.9
6,Cn1c(=O)oc2cc(S(=O)(=O)N3CCC(C(=O)NCc4ccccc4Cl)CC3)ccc21,4.22
7,COc1ccccc1N1CCN(c2nc3c(C)cccn3c(=O)c2C=O)CC1,-32.4
8,O=C(NCCS(=O)(=O)N1CCN(c2ccccc2)CC1)c1ccco1,-14.5
9,COc1ccc(NC(=O)C(CC(C)C)NC(=O)c2ccccc2C)cn1 (centres unmarked),-6.2
10,CC1(C)NC(=O)N(CCCCOc2cccc(C(F)(F)F)c2)C1=O,-6.92
11,CC(=O)Oc1ccc(C(=O)Nc2nccs2)cc1,4.34
12,COc1cccc(/C=N/n2c(N)nc3ccccc32)c1OC,3.13
13,COCC1CCN(C(=O)C2CCC(=O)N(Cc3ccc(Cl)cc3)C2)CC1 (centres unmarked),-4.15
14,Cc1ccc(S(=O)(=O)CC(=O)Nc2nccs2)cc1,0.295
15,Cn1c(CCC(=O)OCC(=O)NCc2ccccc2Cl)nc(=O)c2ccccc21,13.1
16,CC(C)(C)c1ccc(NC(=O)CN2C(=O)NC(C)(C3CC3)C2=O)cc1 (centres unmarked),-25.5
17,Cc1cccc(C)c1N1C(=O)[C@@H]2C(c3ccccc3Cl)=NO[C@@H]2C1=O,11.8
18,O=C(N/N=C/c1ccc[nH]1)c1ccc(O)cc1,19.6
